# Source: PubChem BioAssay AID1508642 (National Center for Advancing Translational Sciences (NCATS), 2021)
# The whole screen tested about 43,000 compounds, of which about 200 (0.47%) were called active. About 12% were inconclusive and are not listed. Calls come from the whole dose curve; as a rule, active = well fitted cell-killing curve with a large enough effect; inconclusive = small, poorly fitted or top-dose-only effect, or effect the other way; inactive = flat fitted curve, though single readings scatter. Some of the results follow.
# Experiment: Cell viability qHTS assay in S16 Pmp22-F2sN cells; note: nearly all actives have a fitted effect of over 65% in size
# Conditions: S16 Pmp22-F2sN Schwann cells (luciferase reporters placed in the Pmp22 gene) viability, CellTiter-Glo, 24 h; series mostly up to 57.5 µM; activity change, negative = cytotoxicity: at the top concentration
# How it was run: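 Rat S16 Schwann reporter line, 24 h treatment with library compounds delivered at 23 nL per well. Cell viability by CellTiter-Glo luminescence.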
# % is set by controls: 0 for no effect and ±100 for the full control effect.
row,Compound,"activity change, negative = cytotoxicity"
1,COc1ccc(CCNc2nc3c(c(=O)n(C)c(=O)n3C)n2Cc2ccccc2Cl)cc1OC,inactive: -11%
2,O=C(Cn1cc(S(=O)(=O)Cc2ccccc2F)c2ccccc21)NCc1ccccc1,inactive: -0.626%
3,Cc1ccc2c(=O)cc(C(=O)Nc3nc4ccc(Cl)cc4s3)oc2c1,inactive: 15.1%
4,O=C(Nc1ccc(C(=O)OCc2cc(=O)n3c4c(sc3n2)CCCC4)cc1)c1cccc(F)c1,inactive: 4.4%
5,Cc1cccc(C(=O)Nc2ccccc2OCc2cc(=O)n3c(C)csc3n2)c1,inactive: 3.03%
6,COc1cc(OC)cc(N2C(=O)CSC23C(=O)Nc2ccccc23)c1 (configuration not stated),inactive: 9.06%
7,CCOc1ccc(Nc2c3c(nc4nncn24)CCC3)cc1,inactive: -11.8%
8,O=C(CCc1ccccc1)N1CCc2c([nH]c3ccccc23)C1c1ccc(F)cc1 (configuration not stated),inactive: 1.61%
9,CCCCNC(=O)c1sc2ncccc2c1-n1cccc1,inactive: 3.53%
10,O=C(CCCn1c(=O)c2ccccc2n(Cc2cccc(F)c2)c1=O)NCc1ccccc1Cl,inactive: 12.1%
11,COc1ccc(NC(=O)CN(c2ccc(C)cc2)S(=O)(=O)c2cccs2)cc1,inactive: 0.854%
12,Cc1cccc(NS(=O)(=O)c2ccc3c(c2)CCCN3C(=O)C2CCC2)c1C,inactive: -28.7%
13,Cc1cc2oc(C(=O)Nc3c(C)n(C)n(-c4ccccc4)c3=O)cc(=O)c2cc1C,inactive: -5.61%
14,CN1C(=O)c2ccccc2Sc2ccc(NC(=O)c3ccc(C#N)cc3)cc21,inactive: -22.4%
15,COC(=O)C(CCSC)NC(=O)c1cc2c(n(-c3ccccc3)c1=O)CC(C)(C)CC2=O (configuration not stated),inactive: 9.13%
16,CCOC(=O)Cn1c(=O)n(-c2ccc(Cl)cc2)c2nc(-c3ccc(Cl)cc3)nc(C(N)=O)c21,inactive: -0.411%
17,CC(=O)N1CCCc2cc(S(=O)(=O)N3CCCC(C(=O)Nc4cccc(Cl)c4C)C3)ccc21 (configuration not stated),inactive: 3.44%
18,CCOC(=O)c1cnc2ccc(OCC)cc2c1Nc1cc(Cl)c(OC)cc1OC,inactive: -21.8%
19,Cc1nc(SCc2ccc(Cl)cc2)c(C#N)c(C)c1Cl,inactive: 9.68%
20,COc1ccc(OC)c(NC(=O)N2CCC(CN3CCCCC3)CC2)c1,inactive: -2.53%
21,CCOc1cc(C(=O)Nc2ccc(S(=O)(=O)Nc3cc(OC)nc(OC)n3)cc2)cc(OCC)c1OCC,inactive: -4.15%
22,COC(=O)c1ccc(Cn2c(SCC(=O)N(C)c3ccccc3)nc3ccccc32)cc1,inactive: 5.34%
23,Cc1ccc(C)c(OC(=O)CSc2nnc(-c3ccc4c(c3)OCO4)o2)c1,inactive: 10.4%
24,CCCN(CCC)CCNC(=O)C1CCCN(S(=O)(=O)c2cccc3nsnc23)C1 (configuration not stated),inactive: 16.3%

row,Compound,"activity change, negative = cytotoxicity"
1,CCOC(=O)c1cc(S(=O)(=O)N2CCN(c3ccc(F)cc3)CC2)[nH]n1,inactive: 1.36%
2,CCCCCOC(=O)c1ccc(OC(=O)c2sc3ncn(Cc4cccc(F)c4)c(=O)c3c2C)cc1,inactive: 4.81%
3,Cc1ccc(C)c(N2CCN(CCCNC(=O)c3nnc(Cc4ccc(F)cc4Cl)o3)CC2)c1,inactive: -14.6%
4,O=C(NCc1ccccc1Cl)c1ccc(NC(=O)N2CCSc3ncccc32)cc1,inactive: 4.91%
5,Cc1ccc(NC(=O)c2oc3ccc(S(=O)(=O)N4CCC5(CC4)OCCO5)cc3c2C)c(C)c1,inactive: -17.1%
6,COCCn1c(SCC(=O)Nc2ccc(C(F)(F)F)cc2)nc2c([nH]c3ccccc32)c1=O,inactive: -3.11%
7,O=C(NCc1ccc2c(c1)CCN2C(=O)c1ccccc1)c1ccco1,inactive: -20.3%
8,O=C(Nc1ccc(S(=O)(=O)N(Cc2ccccc2)c2ccccc2)cc1)c1ccc([N+](=O)[O-])cc1,inactive: -18.5%
9,Cc1ccc(NC(=O)C(=O)NCCc2csc3nc(-c4ccccc4C)nn23)cc1Cl,inactive: 4.04%
10,Cc1ccc(NC(=O)C2CCCN(S(=O)(=O)c3c(C)n[nH]c3C)C2)cc1C (configuration not stated),inactive: 1.5%
11,CSc1cccc(NC(=O)C2CCN(S(=O)(=O)c3ccc4[nH]c5c(c4c3)CCCCC5)CC2)c1,inactive: -15.4%
12,COc1ccc(C)cc1NC(=O)Cn1c(=O)oc2cc(S(=O)(=O)NCc3ccccc3)ccc21,inactive: 6.1%
13,COc1ccc2c(c1)CC(C(=O)NCCN1CCN(c3cccc(C)c3C)CC1)CO2 (configuration not stated),inactive: 4.23%
14,COc1ccc2c(c1)c1c(c(=O)n(Cc3ccccc3)c(=O)n1CC(=O)Nc1ccc(C)cc1C)n2C,inactive: 1.92%
15,CC(C)CCNC(=O)Nc1cc(C(=O)NCc2cccc(F)c2)ccc1N1CCCC1,inactive: -23.8%
16,O=C(Nc1nnc(S(=O)(=O)N2CCCCCC2)s1)c1ccccc1Br,inactive: 13.7%
17,CC(=O)Nc1ccc(Nc2nnc(-c3ccc(C)c(S(N)(=O)=O)c3)c3ccccc23)cc1,inactive: 6.09%
18,COCCCNC(=O)CN1C(=O)CSc2ccc(S(=O)(=O)N3CCOCC3)cc21,inactive: 7.02%
19,CCCS(=O)(=O)N1CC(=O)N(c2ccc(Cl)cc2)C(C)(C(=O)NC2CCCC2)C1 (configuration not stated),inactive: 7.73%
20,Cc1c(Cl)cccc1NC(=O)CSc1nc(=O)n(Cc2cccnc2)c2c1CCC2,inactive: 7.08%
21,CCOc1cccc(NC(=O)c2ccc(F)c(S(=O)(=O)N(CC)c3cccc(C)c3)c2)c1,inactive: 9.68%
22,Cc1ccc(Cn2cc(S(=O)(=O)c3ccc(C)cc3)c(=O)c3cc(F)c(N4CCCC4)cc32)cc1,inactive: -13.8%
23,CC(=O)N1CCc2c(sc3c2c(=O)n(CCc2ccccc2)c(=O)n3Cc2cccc(C)c2)C1,inactive: 12.8%
